Measurements reported in article PMC12820563, “FoxP3 forms a head-to-head dimer in vivo and stabilizes its multimerization on adjacent microsatellites”.
This is one part of the list.

The sequences below were run against T1, MBP-FoxP1dN (Mus musculus, UniProt P58462 326-579) (assay: PD-seq (MBP pull-down with sequencing); 20 mM Tris-HCl pH 7.5, 100 mM NaCl, 1.5 mM MgCl2, 0.4 uM protein, 0.1 uM dsDNA library, 30 min, room temperature, amylose pull-down; high values mean tight binding). Conditions: protein: recombinant; tags: His6-MBP; chain copies: 2; dsDNA, one strand shown.
T1 sequence: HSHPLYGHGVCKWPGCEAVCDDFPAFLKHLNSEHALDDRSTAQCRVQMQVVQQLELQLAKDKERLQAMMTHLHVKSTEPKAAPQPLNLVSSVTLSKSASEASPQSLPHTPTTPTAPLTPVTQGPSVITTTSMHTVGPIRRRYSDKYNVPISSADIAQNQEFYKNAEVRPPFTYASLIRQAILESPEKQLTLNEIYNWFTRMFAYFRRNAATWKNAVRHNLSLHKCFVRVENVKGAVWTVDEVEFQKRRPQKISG
Outline: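 E. coli-expressed mouse FoxP3 or FoxP1 fragment, N-terminus removed and tagged with His6-MBP, was used at 0.4 µM against 0.1 µM of a Klenow-filled degenerate double-stranded DNA library. After 30 min at room temperature in Tris pH 7.5 buffer with NaCl and MgCl2, complexes were pulled down on amylose resin and washed three times. Binding is pull-down over input reads-per-million enrichment from pooled replicates of the proteinase K-released, PCR-barcoded, Illumina-sequenced DNA.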

Row | Sequence | binding signal
1 | GATGATTGTTCTCCCAGCTGATGAATTCATACTCTCGAGTAAACAAATTTTCCTAATCTTTCTGTTCAAGCGCCATCTAC | 0.919 RPM ratio (pull-down/input)
2 | GATGATTGTTCTCCCAGCTGATGAATTTTCTCATTCGAGTAAACAAATTTTCCTAATCTTTCTGTTCAAGCGCCATCTAC | 0.963 RPM ratio (pull-down/input)
3 | GATGATTGTTCTCCCAGCTGATGAATTAAAGTTTTCGAGTAAACAAATTTTCCTAATCTTTCTGTTCAAGCGCCATCTAC | 1.28 RPM ratio (pull-down/input)
4 | GATGATTGTTCTCCCAGCTGATGAATTGACTATCTCGAGTAAACAAATTTTCCTAATCTTTCTGTTCAAGCGCCATCTAC | 1.1 RPM ratio (pull-down/input)
5 | GATGATTGTTCTCCCAGCTGATGAATTACTCATATCGAGTAAACAAATTTTCCTAATCTTTCTGTTCAAGCGCCATCTAC | 1.17 RPM ratio (pull-down/input)
6 | GATGATTGTTCTCCCAGCTGATGAATTCGAACTATCGAGTAAACAAATTTTCCTAATCTTTCTGTTCAAGCGCCATCTAC | 1.02 RPM ratio (pull-down/input)
7 | GATGATTGTTCTCCCAGCTGATGAATTTTCGCAGTCGAGTAAACAAATTTTCCTAATCTTTCTGTTCAAGCGCCATCTAC | 0.974 RPM ratio (pull-down/input)
8 | GATGATTGTTCTCCCAGCTGATGAATTACTACTCTCGAGTAAACAAATTTTCCTAATCTTTCTGTTCAAGCGCCATCTAC | 1.04 RPM ratio (pull-down/input)
9 | GATGATTGTTCTCCCAGCTGATGAATTCTGCGACTCGAGTAAACAAATTTTCCTAATCTTTCTGTTCAAGCGCCATCTAC | 0.882 RPM ratio (pull-down/input)
10 | GATGATTGTTCTCCCAGCTGATGAATTGTAAACGTCGAGTAAACAAATTTTCCTAATCTTTCTGTTCAAGCGCCATCTAC | 1.41 RPM ratio (pull-down/input)
11 | GATGATTGTTCTCCCAGCTGATGAATTGCTTATATCGAGTAAACAAATTTTCCTAATCTTTCTGTTCAAGCGCCATCTAC | 1.34 RPM ratio (pull-down/input)
12 | GATGATTGTTCTCCCAGCTGATGAATTGTGAATATCGAGTAAACAAATTTTCCTAATCTTTCTGTTCAAGCGCCATCTAC | 1.17 RPM ratio (pull-down/input)
13 | GATGATTGTTCTCCCAGCTGATGAATTCACTTGCTCGAGTAAACAAATTTTCCTAATCTTTCTGTTCAAGCGCCATCTAC | 0.849 RPM ratio (pull-down/input)
14 | GATGATTGTTCTCCCAGCTGATGAATTGAACTGTTCGAGTAAACAAATTTTCCTAATCTTTCTGTTCAAGCGCCATCTAC | 0.861 RPM ratio (pull-down/input)
15 | GATGATTGTTCTCCCAGCTGATGAATTCCCAAGATCGAGTAAACAAATTTTCCTAATCTTTCTGTTCAAGCGCCATCTAC | 0.773 RPM ratio (pull-down/input)
16 | GATGATTGTTCTCCCAGCTGATGAATTCGAGACTTCGAGTAAACAAATTTTCCTAATCTTTCTGTTCAAGCGCCATCTAC | 0.824 RPM ratio (pull-down/input)

Row | Sequence | binding signal
17 | GATGATTGTTCTCCCAGCTGATGAATTTCTGCATTCGAGTAAACAAATTTTCCTAATCTTTCTGTTCAAGCGCCATCTAC | 1.35 RPM ratio (pull-down/input)
18 | GATGATTGTTCTCCCAGCTGATGAATTGCTGTGGTCGAGTAAACAAATTTTCCTAATCTTTCTGTTCAAGCGCCATCTAC | 1.07 RPM ratio (pull-down/input)
19 | GATGATTGTTCTCCCAGCTGATGAATTAAGTCAGTCGAGTAAACAAATTTTCCTAATCTTTCTGTTCAAGCGCCATCTAC | 0.83 RPM ratio (pull-down/input)
20 | GATGATTGTTCTCCCAGCTGATGAATTGATTTTATCGAGTAAACAAATTTTCCTAATCTTTCTGTTCAAGCGCCATCTAC | 1.22 RPM ratio (pull-down/input)
21 | GATGATTGTTCTCCCAGCTGATGAATTGGGACGTTCGAGTAAACAAATTTTCCTAATCTTTCTGTTCAAGCGCCATCTAC | 0.92 RPM ratio (pull-down/input)
22 | GATGATTGTTCTCCCAGCTGATGAATTAAAATAATCGAGTAAACAAATTTTCCTAATCTTTCTGTTCAAGCGCCATCTAC | 1.39 RPM ratio (pull-down/input)
23 | GATGATTGTTCTCCCAGCTGATGAATTCTACGAATCGAGTAAACAAATTTTCCTAATCTTTCTGTTCAAGCGCCATCTAC | 0.895 RPM ratio (pull-down/input)
24 | GATGATTGTTCTCCCAGCTGATGAATTGACCAGATCGAGTAAACAAATTTTCCTAATCTTTCTGTTCAAGCGCCATCTAC | 0.901 RPM ratio (pull-down/input)
25 | GATGATTGTTCTCCCAGCTGATGAATTGAAAGGGTCGAGTAAACAAATTTTCCTAATCTTTCTGTTCAAGCGCCATCTAC | 0.737 RPM ratio (pull-down/input)
26 | GATGATTGTTCTCCCAGCTGATGAATTCCACAAGTCGAGTAAACAAATTTTCCTAATCTTTCTGTTCAAGCGCCATCTAC | 0.802 RPM ratio (pull-down/input)
27 | GATGATTGTTCTCCCAGCTGATGAATTGTTGCACTCGAGTAAACAAATTTTCCTAATCTTTCTGTTCAAGCGCCATCTAC | 1.76 RPM ratio (pull-down/input)
28 | GATGATTGTTCTCCCAGCTGATGAATTAAGTGGCTCGAGTAAACAAATTTTCCTAATCTTTCTGTTCAAGCGCCATCTAC | 0.903 RPM ratio (pull-down/input)
29 | GATGATTGTTCTCCCAGCTGATGAATTTCTTGGGTCGAGTAAACAAATTTTCCTAATCTTTCTGTTCAAGCGCCATCTAC | 0.716 RPM ratio (pull-down/input)
30 | GATGATTGTTCTCCCAGCTGATGAATTTTCAACGTCGAGTAAACAAATTTTCCTAATCTTTCTGTTCAAGCGCCATCTAC | 0.89 RPM ratio (pull-down/input)
31 | GATGATTGTTCTCCCAGCTGATGAATTCTGCCAATCGAGTAAACAAATTTTCCTAATCTTTCTGTTCAAGCGCCATCTAC | 1.01 RPM ratio (pull-down/input)
32 | GATGATTGTTCTCCCAGCTGATGAATTGAGTGATTCGAGTAAACAAATTTTCCTAATCTTTCTGTTCAAGCGCCATCTAC | 0.981 RPM ratio (pull-down/input)
